Source: PubChem BioAssay AID651820 (National Center for Advancing Translational Sciences (NCATS), 2012)
In all, about 340,000 compounds went through this assay and about 12,000 (3.5%) were called active. The inconclusive results got no clear call from the source; some entries with a clear call stand among them for comparison. The call rests on the fitted dose curve; in most records, active means well fitted inhibition curve with a large enough effect; inconclusive means small, poorly fitted or top-dose-only effect, or another doubt; inactive means no such curve, though single readings can be large or run the other way. No potency is given beside an inconclusive call; the fits are too rough.

assay: qHTS Assay for Inhibitors of Hepatitis C Virus (HCV); conditions: Huh7.5.1 HCVcc-Cre (HCVcc is cell-culture hepatitis C virus) infection, luciferase reporter, 44 h; series mostly up to 41.8 µM
In short: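 HCVcc-Cre virus at an moi near 0.5 was added right after compound to cells cultured 4 h from seeding (1,000 cells/well). Luciferase activity was determined 44 h later, 15 min after substrate addition at RT.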
Potency means the concentration at half of the fitted maximal effect; tags describe the fitted curve by direction and shape.

| Compound | Potency |
| --- | --- |
| CCCCC(C(=O)NC1CCCC1)N(Cc1ccccc1)C(=O)c1snc(C(N)=O)c1N (stereo not drawn) | inconclusive [inhibitor, single point] |
| Cn1c(=O)c2c(ncn2Cc2ccccc2)n(C)c1=O | inconclusive [inhibitor, partial curve, poor fit] |
| COc1ccc(-c2cn(Cc3ccc(C(=O)NCc4ccc(C)cc4)cc3)c(C(C)N)n2)cc1 (stereo not drawn) | inconclusive [inhibitor, full curve] |
| COc1ccccc1CN(C)CC(=O)Nc1cccc2ccccc12 | inactive |
| COc1cc(C(C)=O)ccc1COc1ccc(C(=O)OC(C)C(=O)NC(N)=O)cc1OC (stereo not drawn) | inconclusive [inhibitor, full curve] |
| Cc1ccc2cc(C#N)c(N3CCCN(S(=O)(=O)c4ccccc4)CC3)nc2c1C | inconclusive [inhibitor, partial curve] |
| CC(c1ccccc1)[n+]1ccccc1 (stereo not drawn) | inconclusive [inhibitor, partial curve] |
| Cc1ccc(NC(=O)c2ccc(Nc3ccccc3F)nc2)cc1 | inconclusive [inhibitor, partial curve] |
| Cc1cccc(C)c1OCc1cc(C(=O)N2CCC(c3ccncc3)CC2)no1 | active: 7.94 µM |
| CC(C)(C)C(=O)c1sc(Nc2ccccc2)nc1N | inconclusive [inhibitor, partial curve] |
| O=C(C1CCCCC1)N1CCC(CO)(Cc2ccccc2Cl)CC1 | inactive |
| O=C(NCc1nc2ccccc2[nH]1)C1=C[C@@H](c2ccccc2)C[C@@H](OCc2ccc(CO)cc2)O1 | inconclusive [inhibitor, single point] |
| Cc1ccc(/C=N/N2CCN(Cc3cccc4ccccc34)CC2)o1 | inconclusive [inhibitor, single point] |
| C[C@H]1CCC/C=C/[C@@H]2C[C@H](O)C[C@H]2[C@H](O)[C@H](S(=O)c2ccc(O)cc2)CC(=O)O1 (stereo partly drawn) | active: 0.562 µM |
| CC(C)(C)OC(=O)c1c(N)n(Cc2ccco2)c2nc3ccccc3nc12 | inconclusive [inhibitor, partial curve] |
| CN(C)CCOC(=O)NC12CC3CC(CC(C3)C1)C2 | inactive |
| Cc1ccc(-n2c(=O)[nH]c3c(C(N)=O)nc(-c4ccc(C)o4)nc32)cc1 | inconclusive [inhibitor, single point] |
| Cc1cc(CNC(=O)Cc2ccccc2)c2ccccc2n1 | inconclusive [inhibitor, full curve, poor fit] |
| c1ccc(-c2nnc(C(c3ccccc3)c3ccccc3)o2)cc1 | inactive |
| COc1cc(OC)c(NC(=O)c2ccco2)cc1Cl | inconclusive [inhibitor, partial curve] |
| CCCN1C2=NCCN2c2ccccc21 | inactive |
| Cc1cccc(NC(=O)c2nc[nH]c2C(=O)N[C@@H](CCCCNC(=O)OC(C)(C)C)C(=O)OC(C)(C)C)c1 | inconclusive [inhibitor, single point] |

| Compound | Potency |
| --- | --- |
| Cc1ccc(S(=O)(=O)N2CCOCC2)cc1C(=O)N1CCCC1 | inconclusive [inhibitor, single point] |
| CC(=O)NC(c1ccc(C)cc1)c1cc([N+](=O)[O-])c2cccnc2c1O (stereo not drawn) | inconclusive [inhibitor, single point] |
| CC(=O)N1CCN(C(=O)CSc2nc3c(cnn3-c3ccccc3)c(=O)[nH]2)CC1 | inactive |
| C[C@@H]1CN([C@H](C)CO)C(=O)Cc2cc(NS(=O)(=O)c3ccc(Cl)cc3)ccc2O[C@H]1CN(C)Cc1ccc(C(F)(F)F)cc1 | inconclusive [inhibitor, single point] |
| Cc1ccc(NC(=O)c2ccc(NCCN)c([N+](=O)[O-])c2)cc1Cl | active: 14.1 µM |
| Cc1oc(-c2ccccc2Cl)nc1CS(=O)(=O)CC(=O)N1CCOCC1 | inactive |
| O=C(C1=C[C@H](c2ccc(Br)cc2)C[C@H](OCCCCO)O1)N1CCN(Cc2ccccc2)CC1 | inconclusive [inhibitor, partial curve, poor fit] |
| c1ccc(C[C@H]2CN=C(Nc3ccccc3)N2CC2CCCCCC2)cc1 | inconclusive [inhibitor, single point] |
| Cc1ccc(/C=C2/C(=O)ON=C2c2ccccc2)o1 | inactive |
| O=C(C1CCCN(c2ncnc3c2nc2n3CCCCC2)C1)N1CCN(c2cccc(Cl)c2)CC1 (stereo not drawn) | inconclusive [inhibitor, single point] |
| COc1ccc(C[C@H]2CN3C(=NC[C@@H]3Cc3ccc(O)cc3)N2CCNC(=O)c2ccc(C)c(Br)c2)cc1 | inactive |
| Cc1nnc(-c2cccc(Br)c2)c2cn(-c3ccccc3)nc12 | inconclusive [inhibitor, partial curve] |
| O=C(NC(Cc1ccccc1)c1nc2ccccc2[nH]1)c1ccc(Cl)c([N+](=O)[O-])c1 (stereo not drawn) | inconclusive [inhibitor, single point] |
| Cc1ccc(S(=O)(=O)N(CC(=O)Nc2cccc([N+](=O)[O-])c2)Cc2ccc(Cl)cc2)cc1 | inconclusive [inhibitor, single point] |
| COc1ccc(N2CCN(CCNC(=O)CCN3C(=O)COc4ccccc43)CC2)cc1 | inconclusive [inhibitor, partial curve] |
| CC1CN2C(c3ccc([N+](=O)[O-])cc3)=CSC2=N1 (stereo not drawn) | inconclusive [inhibitor, single point] |
| OC(CN1CCCCC1)Cn1c2ccc(Cl)cc2c2cc(Cl)ccc21 (stereo not drawn) | inconclusive [inhibitor, single point] |
| COc1ccc(/C(N)=N/OC(=O)c2ccc3c(c2)OCO3)cc1 | inconclusive [inhibitor, single point] |
| CCCOc1cccc(NC(=O)c2cc(C)oc2C)c1 | active: 10 µM |
| COC(=O)c1ccccc1NC(=S)NC(=O)COc1ccccc1Cl | inactive |
| Cc1ccc(OCCCCn2ccnc2C)c(C)c1 | inconclusive [inhibitor, full curve] |
